This is one part of the list.
These compounds were tested on HepG2 (assay: cytotoxicity call (relative viability < 0.9)). Settings: 10 µM.

Row | Compound | cytotoxicity call
1 | C[C@@H]1CN([C@H](C)CO)C(=O)c2cc(NC(=O)Nc3ccc4c(c3)OCO4)ccc2O[C@@H](C)CCCCO[C@H]1CN(C)Cc1ccc2c(c1)OCO2 | inactive
2 | COc1ccc(-c2ccc3n(c2=O)C[C@H]2[C@H](CO)[C@@H](C(=O)NCC4CC4)[C@@H]3N2S(C)(=O)=O)cc1 | inactive
3 | O=C(O)c1cccnc1Nc1cccc(C(F)(F)F)c1 | inactive
4 | COc1ccc(CN(C)C[C@H]2OCCCC[C@@H](C)Oc3ccc(NC(=O)NC(C)C)cc3C(=O)N([C@H](C)CO)C[C@H]2C)cc1 | inactive
5 | C[C@@H]1CN([C@@H](C)CO)C(=O)c2cc(NS(=O)(=O)c3ccc(Cl)cc3)ccc2O[C@@H]1CN(C)Cc1ccc(-c2ccccc2)cc1 | active
6 | O=C(CCCCCCC(=O)Nc1ccc([C@H]2O[C@@H](CSc3ccncc3)C[C@@H](c3ccccc3)O2)cc1)NO | inactive
7 | O=C(C[C@H]1CC[C@@H]2[C@H](COC[C@H](O)CN2C(=O)c2ccncc2)O1)NC1CCC1 | inactive
8 | C=C1C(=O)OC2CC3(C)CCCC(C)C3=CC12 (configuration not stated) | active
9 | COc1cc(C)ccc1S(=O)(=O)N1[C@@H]2CC[C@@H](C2)[C@H]1c1nc2cccc(OCc3ccccc3)c2[nH]1 | inactive
10 | C[C@H](CO)N1C[C@H](C)[C@H](CN(C)C(=O)Nc2ccc3c(c2)OCO3)OCCCC[C@H](C)Oc2ccc(NC(=O)NC3CCCCC3)cc2C1=O | inactive
11 | O=C(C[C@H]1C[C@H]2c3cc(NS(=O)(=O)c4ccc(F)cc4)ccc3O[C@H]2[C@H](CO)O1)N1CCCCC1 | inactive
12 | C[C@@H]1CN([C@@H](C)CO)C(=O)c2cccc(NC(=O)C3CC3)c2O[C@@H]1CN(C)Cc1ccc2c(c1)OCO2 | inactive

These compounds were tested on S. aureus RN4220 (assay: growth inhibition call (relative growth <= 0.2)). Settings: 50 µM.

Row | Compound | growth inhibition call
13 | COc1ccccc1C#Cc1ccc2c(c1)O[C@@H](CN(C)C(C)=O)[C@H](C)CN([C@@H](C)CO)S2(=O)=O | inactive
14 | O=C(NCC(F)(F)F)[C@@H]1c2ccccc2C(=O)N(Cc2ccccc2C(F)(F)F)[C@H]1c1ccc(CO)cc1 | inactive
15 | CN(C)CCCNC(=O)C[C@@H]1CC[C@H]2[C@H](COc3ccc(NS(C)(=O)=O)cc3C(=O)N2C)O1 | inactive
16 | C[C@@H]1CN([C@@H](C)CO)C(=O)Cc2cc(NS(=O)(=O)c3cn(C)cn3)ccc2O[C@H]1CN(C)Cc1ccncc1 | inactive
17 | C[C@H]1CCCCO[C@H](CN(C)Cc2ccc3c(c2)OCO3)[C@@H](C)CN([C@@H](C)CO)C(=O)c2cc(NC(=O)CCC(F)(F)F)ccc2O1 | inactive
18 | O=C(C[C@H]1CC[C@H]2[C@@H](COC[C@@H](O)CN2C(=O)c2ccc3c(c2)OCO3)O1)NCCN1CCCCC1 | inactive
19 | Cc1ccc(S(=O)(=O)Nc2ccc3c(c2)C(=O)N([C@H](C)CO)C[C@H](C)[C@H](CN(C)C(=O)Nc2ccccc2)OCCCC[C@@H](C)O3)cc1 | inactive
20 | COc1ccc(CN(C)C[C@@H]2OCCCC[C@H](C)Oc3ccc(NC(=O)C4CCCCC4)cc3C(=O)N([C@@H](C)CO)C[C@@H]2C)cc1 | inactive
21 | C[C@@H]1CCCCO[C@H](CN(C)S(=O)(=O)c2ccccc2)[C@@H](C)CN([C@@H](C)CO)C(=O)c2cc(NC(=O)Nc3ccc(F)cc3)ccc2O1 | inactive
22 | O=C(COP(=O)(O)O)[C@@H](O)[C@H](O)[C@H](O)COP(=O)(O)O | inactive
23 | Cc1ccc(S(=O)(=O)Nc2ccc3c(c2)C(=O)N([C@H](C)CO)C[C@@H](C)[C@H](CN(C)C(=O)Nc2ccc(F)cc2)OCCCC[C@H](C)O3)cc1 | inactive
24 | Cc1noc(C)c1NC(=O)Nc1ccc2c(c1)C(=O)N([C@@H](C)CO)C[C@@H](C)[C@@H](CN(C)S(=O)(=O)c1ccccc1)O2 | inactive
25 | C=CC[C@H](CC(=O)N(CCO)Cc1ccccc1)C(=O)N[C@@H](COC(=O)[C@@H](CC=C)Cc1ccc(F)cc1)Cc1c[nH]c2ccccc12 | inactive
26 | C[C@@H]1CN([C@@H](C)CO)C(=O)c2cc(NC(=O)Nc3ccc(F)cc3)ccc2O[C@@H](C)CCCCO[C@@H]1CN(C)S(=O)(=O)c1ccccc1 | inactive
27 | C[C@@H]1CCCCO[C@@H](CN(C)C(=O)Nc2cccc3ccccc23)[C@@H](C)CN([C@H](C)CO)C(=O)c2cc(NC(=O)Nc3cccc4ccccc34)ccc2O1 | inactive
28 | COc1ccc(S(=O)(=O)Nc2ccc3c(c2)C(=O)N([C@@H](C)CO)C[C@@H](C)[C@@H](CN(C)Cc2ccc(Cl)c(Cl)c2)OCCCC[C@@H](C)O3)cc1 | inactive
29 | COc1ccc(NC(=O)N(C)C[C@@H]2OCCCC[C@@H](C)Oc3ccc(NC(=O)NC(C)C)cc3C(=O)N([C@H](C)CO)C[C@@H]2C)cc1 | inactive
30 | C[C@@H]1CN([C@@H](C)CO)C(=O)CCCn2cc(nn2)CO[C@H]1CN(C)C(=O)Nc1ccc(C(F)(F)F)cc1 | inactive
31 | C[C@H]1CN([C@@H](C)CO)C(=O)c2cccc(NC(=O)Nc3cccc4ccccc34)c2O[C@H]1CN(C)Cc1ccccc1 | inactive
32 | C[C@@H]1CN([C@@H](C)CO)C(=O)c2cc(NC(=O)Nc3ccc4c(c3)OCO4)ccc2O[C@@H](C)CCCCO[C@@H]1CN(C)Cc1ccccc1 | inactive

Row | Compound | growth inhibition call
33 | C[C@@H]1CN([C@@H](C)CO)C(=O)c2cc(NC(=O)CCC(F)(F)F)ccc2O[C@@H]1CN(C)S(=O)(=O)c1cn(C)cn1 | inactive
34 | COC(=O)c1sc2ccccc2c1NC(=O)c1ccc(S(=O)(=O)N2C[C@@]3(C)C[C@@H]2CC(C)(C)C3)cc1 | inactive
35 | O=C(C[C@H]1C=C[C@H](NC(=O)Cc2ccccn2)[C@H](CO)O1)NCCCN1CCOCC1 | inactive
36 | CCS(=O)(=O)N1CC[C@]2(CC1)CN([C@H](CO)c1[nH]c3cc(ccc3c12)OC)C(=O)Cc1ccccn1 | inactive
37 | Cc1coc2c1C(=O)C(=O)c1c-2ccc2c1CCCC2(C)C | inactive
38 | CCOC(=O)CSc1nnc2c3sc4nc(N5CCOCC5)c5c(c4c3ncn12)CC(C)(C)OC5 | inactive
39 | CCN1C(C)(C)CC(Oc2ccc(C(=O)Nc3ccc(NC(=O)Nc4cc(C(C)(C)C)on4)cc3)nc2)CC1(C)C | inactive
40 | COc1ccc2c3c(n(c2c1)C)[C@H](CO)N(C[C@]13CN(C1)C(=O)c1ccccn1)S(=O)(=O)c1ccc(cc1)C | inactive
41 | C[C@@H]1CN([C@H](C)CO)C(=O)c2cc(NC(=O)Nc3ccc4c(c3)OCO4)ccc2O[C@@H](C)CCCCO[C@H]1CN(C)Cc1ccc2c(c1)OCO2 | inactive
42 | COc1ccc(-c2ccc3n(c2=O)C[C@H]2[C@H](CO)[C@@H](C(=O)NCC4CC4)[C@@H]3N2S(C)(=O)=O)cc1 | inactive
43 | O=C(O)c1cccnc1Nc1cccc(C(F)(F)F)c1 | inactive
44 | COc1ccc(CN(C)C[C@H]2OCCCC[C@@H](C)Oc3ccc(NC(=O)NC(C)C)cc3C(=O)N([C@H](C)CO)C[C@H]2C)cc1 | inactive
45 | C[C@@H]1CN([C@@H](C)CO)C(=O)c2cc(NS(=O)(=O)c3ccc(Cl)cc3)ccc2O[C@@H]1CN(C)Cc1ccc(-c2ccccc2)cc1 | inactive
46 | O=C(CCCCCCC(=O)Nc1ccc([C@H]2O[C@@H](CSc3ccncc3)C[C@@H](c3ccccc3)O2)cc1)NO | inactive
47 | O=C(C[C@H]1CC[C@@H]2[C@H](COC[C@H](O)CN2C(=O)c2ccncc2)O1)NC1CCC1 | inactive
48 | C=C1C(=O)OC2CC3(C)CCCC(C)C3=CC12 (configuration not stated) | inactive
49 | COc1cc(C)ccc1S(=O)(=O)N1[C@@H]2CC[C@@H](C2)[C@H]1c1nc2cccc(OCc3ccccc3)c2[nH]1 | inactive
50 | C[C@H](CO)N1C[C@H](C)[C@H](CN(C)C(=O)Nc2ccc3c(c2)OCO3)OCCCC[C@H](C)Oc2ccc(NC(=O)NC3CCCCC3)cc2C1=O | inactive
51 | O=C(C[C@H]1C[C@H]2c3cc(NS(=O)(=O)c4ccc(F)cc4)ccc3O[C@H]2[C@H](CO)O1)N1CCCCC1 | inactive
52 | C[C@@H]1CN([C@@H](C)CO)C(=O)c2cccc(NC(=O)C3CC3)c2O[C@@H]1CN(C)Cc1ccc2c(c1)OCO2 | inactive

From the antibiotic and cytotoxicity screens of Wong et al. (2023)
